Where “and” joins values, the source holds several entries; their conditions need not be identical. Identical values can stand only once. Inconclusive results, whose numbers are uncertain, are shown with a selection of clear calls. Potencies beside an inconclusive call are fits to weak or partial responses and may not hold up. Calls of active or inactive are those of the source. The call rests on the fitted dose curve; in most records, active means well fitted activation curve with a large enough effect in the signal ratio in the repeat runs (not every such curve was filed as active); inconclusive means weak or mixed curves; inactive means flat fitted curve, though single readings scatter; the % refers to the signal ratio.
Test: qHTS assay to identify small molecule agonists of the hypoxia (HIF-1) signaling pathway (AID 1224846)
Conditions: HRE-bla ME-180 cells, beta-lactamase ratio, 17 h; activation: at 76.8 µM (top of the series) unless noted
From the text: U.S. Tox21 Program National Center for Advancing Translational Sciences [NCATS] NIH Chemical Genomics Center [NCGC] U.S. Environmental Protection Agency [EPA] National Institutes of Environmental Health Sciences [NIEHS] National Toxicology Program [NTP] U.S. Food and Drug Administration [FDA] Tox21 Assay Overview: Hypoxia-inducible factor-1 (HIF-1) is the major hypoxia-regulated transcription factor that controls cellular responses to low oxygen concentration. HIF-1 is composed of two subunits: hypoxia responsive HIF-1-alpha and constitutively expressed HIF-1-beta, which is also known as aryl hydrocarbon receptor nuclear translocator. During hypoxic conditions, HIF-1-alpha heterodimerizes with HIF-1-beta and translocates into the nucleus where the HIF-1 complex binds to the hypoxia-response element (HRE) and activates expression of target genes such as VEGF (vascular endothelial growth factor). The HIF-1 pathway is essential to normal growth and development, and is involved in the pathophysiology of cancer, inflammation, and ischemia. Using a beta-lactamase reporter-gene under control of the hypoxia response element, a cell-based assay [CellSensor(TM) HRE-bla ME-180 from Life Technologies, Carlsbad, CA] was used to measure hypoxia-induced signaling. Tox21 10K library compounds were measured for their ability to induce the reporter gene activity.
Tox21 Assay Protocol Summary: HRE-bla ME-180 cells were dispensed at 2,000 cells per well in 6 uL of assay medium containing 0.5% dialyzed FBS into black wall/clear-bottom 1536-well plates using a Multidrop Combi (Thermo Scientific, Waltham, MA) dispenser. After the assay plates were incubated at 37C and 5% CO2 for 5 hrs, 23 nL of compounds dissolved in DMSO, positive controls or DMSO only was transferred to each well of the assay plate using a Pintool station (Kalypsys, San Diego, CA). The assay plates were incubated at 37C and 5% CO2 for 17 hrs. One uL of LiveBLAzerTM B/G FRET substrate (CCF4-AM) (Life Technologies) was added to each well using a Flying Reagent Dispenser (Aurora Discovery, San Diego, CA).
In the case of `CCCCCCC[CH2][Sn]([Cl])([Cl])[CH2]CCCCCCC`, the Potency is reported as inconclusive: 61.6 µM [falling, single point].
With `CC(=O)[O][Hg][c]1ccccc1` the Potency was inconclusive: 193 nM [falling, full curve] and inconclusive: 1.95 µM [falling, full curve] and inconclusive: 379 nM [falling, full curve].
For `Cc1ccccc1[N+](=O)[O-]`, the Potency was “inactive”.
With `CC1(C)C(C(=O)OC(C#N)c2cccc(Oc3ccccc3)c2)C1(C)C` (stereo not given) the Potency was inconclusive: 62.1 µM [falling, partial curve, poor fit].
With `[F][Sn]([c]1ccccc1)([c]1ccccc1)[c]1ccccc1` the Potency was inconclusive: 1.23 µM [falling, full curve].
In the case of `ClC1=C(Cl)C2(Cl)C(CBr)CC1(Cl)C2(Cl)Cl` (stereo not given), the Potency is reported as inconclusive: 54.9 µM and inactive.
With `CCOC(=O)C(C)OC(=O)c1cc(Oc2ccc(C(F)(F)F)cc2Cl)ccc1[N+](=O)[O-]` (stereo not given) the Potency was inconclusive: 48.7 µM [falling, partial curve].
For `C[C@]12CC[C@@H]3c4ccc(OC(=O)N(CCCl)CCCl)cc4CC[C@H]3[C@@H]1CC[C@@H]2O`, the Potency was inconclusive: 30.1 µM [falling, single point].
For `Cc1c(COC(=O)[C@@H]2[C@H](/C=C(\Cl)C(F)(F)F)C2(C)C)cccc1-c1ccccc1`, the Potency was inconclusive: 60.3 µM [falling, single point].
In the case of `CC(C)Oc1cccc(NC(=O)c2ccccc2C(F)(F)F)c1`, the Potency is reported as inconclusive: 61.6 µM [falling, single point].
With `c1ccc(Nc2ccc3ccccc3c2)cc1` the Potency was inconclusive: 54.6 µM and inconclusive: 54.9 µM [single point].
For `CCCCCCC1CCOC1=O` (stereo not given), the Potency was inconclusive: 0.195 µM [falling, single point].
In the case of `O=C(Nc1ccccc1-c1ccc(Cl)cc1)c1cccnc1Cl`, the Potency is reported as inconclusive: 36.8 µM [rising, partial curve].
For `C=CCC1=C(C)C(OC(=O)C2C(C=C(C)C)C2(C)C)CC1=O` (stereo not given), the Potency was inconclusive: 65.4 µM.
For `N#CC(C#N)=NNc1cccc(Cl)c1`, the Potency was inconclusive: 3.09 µM [falling, full curve].
In the case of `O=C(Nc1ccc2[nH]ccc2c1)c1cc2cc(F)ccc2n1Cc1cccc(F)c1`, the Potency is reported as inconclusive: 34.7 µM [falling, partial curve].
In the case of `COP(=O)(OC)OC(Br)C(Cl)(Cl)Br` (stereo not given), the Potency is reported as inconclusive: 55 µM [single point] and inactive.
With `CCC[CH2][Sn]([Cl])([Cl])[CH2]CCC` the Potency was inconclusive: 249 nM [falling, full curve] and inconclusive: 347 nM [falling, full curve].
With `CCC(C)(C)c1ccc(O)c(C(C)(C)CC)c1` the Potency was inconclusive: 21.6 µM [falling, full curve] and inconclusive: 24.5 µM [falling, full curve].
With `O=[N+]([O-])C(Br)(CO)CO` the Potency was inconclusive: 54.9 µM [single point].
With `Oc1ccc(C(c2ccc(O)cc2)(C(F)(F)F)C(F)(F)F)cc1` the Potency was inconclusive: 54.7 µM and inconclusive: 54.9 µM.
With `O=C(N[C@@H]1N=C(c2ccccc2F)c2cccc3c2N(CC3)C1=O)c1cc2ccccc2[nH]1` the Potency was inconclusive: 16.9 µM [falling, partial curve].
In the case of `CC[C@H](C)[C@H]1O[C@]2(C=C[C@@H]1C)C[C@@H]1C[C@@H](C/C=C(\C)[C@@H](O[C@H]3C[C@H](OC)[C@@H](O[C@H]4C[C@H](OC)[C@@H](O)[C@H](C)O4)[C@H](C)O3)[C@@H](C)/C=C/C=C3\CO[C@@H]4[C@H](O)C(C)=C[C@@H](C(=O)O1)[C@]34O)O2`, the Potency is reported as inconclusive: 32.5 µM [single point].
For `O=C(CCl)c1ccc(Cl)cc1Cl`, the Potency was inconclusive: 13.4 µM [full curve].
For `C[C@H]1CC[C@@H]2[C@@H](C)[C@H]3[C@H](C[C@H]4[C@@H]5CC=C6CC(O[C@@H]7O[C@H](CO)[C@H](O)[C@H](O[C@@H]8O[C@H](CO)[C@@H](O)[C@H](O)[C@H]8O)[C@H]7O[C@H]7O[C@@H](C)[C@H](O)[C@@H](O)[C@H]7O)CC[C@]6(C)[C@H]5CC[C@]34C)N2C1` (stereo not given in full), the Potency was inconclusive: 22.6 µM [falling, full curve].
With `O=C(Nc1ccccc1)Nc1ccnc(Cl)c1` the Potency was inconclusive: 0.195 µM [falling, single point].
With `S=C=NCCc1ccccc1` the Potency was inconclusive: 55.1 µM [falling, single point].
With `CC(C)(O)c1cnn2c(-c3ccc(F)c(-c4c(F)cccc4C#N)c3)cnc2n1` the Potency was inconclusive: 54.9 µM [fluorescent, partial curve].
In the case of `CC(C)[C@H](C(=O)O[C@H](C#N)c1cccc(Oc2ccccc2)c1)c1ccc(Cl)cc1`, the Potency is reported as inconclusive: 61.6 µM [falling, partial curve, poor fit].
In the case of `CCCCCCCc1ccc(O)cc1`, the Potency is reported as inconclusive: 54.9 µM.
With `CC(c1ccc(O)cc1)(c1ccc(O)cc1)c1ccc(O)cc1` the Potency was inconclusive: 19.5 µM.
With `CN1C(=O)[C@@H](NC(=O)c2cc3ccccc3[nH]2)N=C(c2ccccc2)c2ccccc21` the Potency was inconclusive: 26.8 µM [falling, single point].
With `CCOP(=S)(OCC)Oc1nc(Cl)c(Cl)cc1Cl` the Potency was inconclusive: 17.4 µM [falling, full curve].
For `N#Cc1c2ccccc2cc2ccccc12`, the Potency was inconclusive: 54.8 µM [fluorescent].
For `C=C(C)C(=O)[O][Sn]([CH2]CCC)([CH2]CCC)[CH2]CCC`, the Potency was inconclusive: 0.776 µM [falling, full curve].
In the case of `C=Cc1cccc(CCl)c1`, the Potency is reported as inconclusive: 113 µM [rising, partial curve, poor fit].
With `c1ccc2cc3c(cc2c1)-c1cccc2cccc-3c12` the Potency was inconclusive: 21.6 µM [fluorescent, partial curve].
In the case of `CC1(C)C(/C=C(\Cl)C(F)(F)F)C1C(=O)OC(C#N)c1cccc(Oc2ccccc2)c1` (stereo not given), the Potency is reported as inconclusive: 55.8 µM [falling, partial curve].
For `O=[N+]([O-])c1cc(C(F)(F)F)c(Cl)c([N+](=O)[O-])c1Nc1ncc(C(F)(F)F)cc1Cl`, the Potency was inconclusive: 3.47 µM [falling, full curve].
With `c1ccc(OCC2CO2)cc1` (stereo not given) the “activation” value was inactive: -0.282%.
On the % scale 0 is the no-effect control and ±100 the full control effect; potency means the concentration at half of the fitted maximal effect; tags describe the fitted curve by direction and shape or compound fluorescence and quenching.
